The campaign covered roughly 200,000 compounds. About 4,500 (2.2%) were called active. Inconclusive means that the source gave no clear call. Such entries were picked first, then a sample of the others. The call rests on the fitted dose curve; in most records, active means well fitted inhibition curve with a large enough effect; inconclusive means small, poorly fitted or top-dose-only effect, or effect the other way; inactive means flat fitted curve, though single readings scatter. A potency beside an inconclusive call is a rough fit, not a confirmed value.
What follows are compounds tested against Cruzipain (Trypanosoma cruzi) (UniProt P25779) (assay: qHTS Assay for Promiscuous and Specific Inhibitors of Cruzain (without detergent)). Conditions: purified cruzain, Z-FR-AMC fluorescence, no detergent.
Method in brief: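 Detergent-free condition (0.00005% Triton X-100) in acetate buffer pH 5.5 with DTT. 1.5 nM enzyme and compound were pre-mixed 15 min, then 2 uM Z-FR-AMC substrate added; reaction progress from fluorescence change between first and third reads (60 s).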
Further: nearly all actives have a fitted effect of over 40% in size.
Potency means the concentration at half of the fitted maximal effect; tags describe the fitted curve by direction and shape.
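Wherever max response, negative = inhibition is given: plate controls were enzyme without inhibitor for no effect and buffer without enzyme for full effect.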

Chain of UniProt P25779 (P25779 whole entry, looked up): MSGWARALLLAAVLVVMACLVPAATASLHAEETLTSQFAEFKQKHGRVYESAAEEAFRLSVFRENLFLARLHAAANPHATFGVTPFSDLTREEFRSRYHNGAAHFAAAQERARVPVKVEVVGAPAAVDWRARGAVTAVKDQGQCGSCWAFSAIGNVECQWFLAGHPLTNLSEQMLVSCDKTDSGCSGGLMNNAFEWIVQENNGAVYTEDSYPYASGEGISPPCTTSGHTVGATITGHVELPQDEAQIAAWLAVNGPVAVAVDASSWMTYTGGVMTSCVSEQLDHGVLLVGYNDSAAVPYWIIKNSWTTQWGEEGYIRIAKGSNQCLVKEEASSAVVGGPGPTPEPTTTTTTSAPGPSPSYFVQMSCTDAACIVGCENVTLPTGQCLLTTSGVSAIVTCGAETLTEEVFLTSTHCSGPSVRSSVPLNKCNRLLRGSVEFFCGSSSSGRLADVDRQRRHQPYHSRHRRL

Row | Compound | max response, negative = inhibition | Potency
1 | CC1=CC(C)(C)N(C(=O)CN2C(=O)c3ccccc3C2=O)c2ccc(C)cc21 | inactive: -6.74% | 
2 | COc1cc2c(cc1OC)-c1cc(OCc3ccccc3Cl)nc(=O)n1CC2 |  | inconclusive: 25.1 µM [activator, single point]
3 | O=C(/C=C/Nc1ccccc1F)c1ccc(Br)cc1 |  | inconclusive: 25.1 µM [inhibitor, single point]
4 | Cc1ccc(C2=NN(CCC(=O)NCCC(C)C)C(=O)CC2)cc1 | inactive: 13.7% | 
5 | CCC(=O)Nc1nnc(SCc2ccc(F)cc2)s1 |  | inconclusive: 39.8 µM [inhibitor, single point]
6 | c1ccc(CNc2ncncc2-c2ccc3c(c2)OCO3)cc1 | inactive: -0.52% | 
7 | CCCCOc1ccc(-c2nnn(CCC(=O)N3CCOCC3)n2)cc1 |  | inconclusive: 39.8 µM [activator, single point]
8 | COc1ccc(CNC(=O)Cc2ccc(NC(=O)N3CCCCc4ccccc43)cc2)cc1 | inactive: 12.5% | 
9 | CCCOC(=O)c1cccc(Nc2nc(C(=O)OCC)nc3ccccc23)c1 |  | inconclusive: 39.8 µM [activator, single point]
10 | CCC1CN(C(=O)N2CCC(C(=O)NCc3ccccc3F)CC2)c2ccccc2O1 (stereo not given) | inactive: -1.58% | 
11 | Cc1c(Cc2ccc3c(c2)OCO3)sc(NC(=O)c2cccc3ccccc23)c1C(N)=O |  | inconclusive: 31.6 µM [inhibitor, single point]
12 | Cc1ccc(C(=O)/C=C/Nc2ccc([N+](=O)[O-])cc2Br)cc1 |  | inconclusive: 3.98 µM [inhibitor, single point]
13 | N=C1SCC(=O)N1c1nc(-c2ccccc2)cs1 |  | inconclusive: 39.8 µM [inhibitor, single point]
14 | CCOc1ccc(CCNC(=O)Cn2ccc3cc(S(=O)(=O)N4CCCCCC4)ccc32)cc1 | inactive: 11.8% | 
15 | CCC1CN(C(=O)C2CCN(S(=O)(=O)c3c(C)noc3/C=C/c3ccc(C)cc3)CC2)c2cc(C)ccc2O1 (stereo not given) |  | inconclusive: 6.31 µM [inhibitor, single point]
16 | CC1=C(C(=O)Nc2ccc(F)cc2)C(c2ccc(N(C)C)cc2)NC(=O)N1 (stereo not given) | inactive: 1.02% | 
17 | COc1ccccc1-c1nc2n(n1)C(c1ccc(Cl)cc1)C(C(N)=O)=C(C)N2 (stereo not given) | inactive: 1.24% | 
18 | CC(=O)Nc1ccccc1/C=C/c1ccc2c(C)cc(C)c(O)c2n1 |  | inconclusive: 39.8 µM [inhibitor, single point]
19 | O=C(Nc1cc(-c2ccc(F)c(F)c2)no1)c1ccccc1F |  | active: 25.1 µM
20 | Cc1cccc(N2CCN(C(=O)C3CCCN(C(=O)c4cc5sccc5n4C)C3)CC2)c1C (stereo not given) |  | inconclusive: 15.8 µM [activator, partial curve]
21 | O=C(NC(c1ccccc1)c1ccccc1)N1CCN(CCO)CC1 | inactive: -2.87% | 
22 | COC(=O)c1c(NC(=O)c2ccccc2)sc(C(=O)c2ccccc2)c1C |  | inconclusive: 15.8 µM [inhibitor, single point]

Row | Compound | max response, negative = inhibition | Potency
23 | O=C1C=CC(=O)C(C2=C3C(=O)N(CCc4ccccc4)CC(=O)N3CCC2)=C1 | inactive: 9.9% | 
24 | COc1ccccc1-c1ccc2ncnc(N(C)C)c2c1 | inactive: 0.158% | 
25 | COC(=O)c1ccccc1NC(=O)CN(c1ccc(Cl)cc1)S(=O)(=O)c1ccc(OC)cc1 | inactive: 6.36% | 
26 | COc1ccc(CCNC(=O)Cn2c(=O)nc(-c3ccccc3F)c3cc(Cl)ccc32)cc1OC |  | inconclusive: 25.1 µM [activator, partial curve]
27 | CCN(CC)CCCNC(=O)C(C)n1nc(C)n2c(cc3occc32)c1=O (stereo not given) | inactive: 0.688% | 
28 | Cc1c(Cl)cccc1NC(=O)CCn1cnnn1 | inactive: 6.56% | 
29 | COc1ccc(Cl)cc1NC(=O)COC(=O)CC(C)(C)CC1=NS(=O)(=O)c2ccccc2N1 |  | inconclusive: 39.8 µM [activator, single point]
30 | CCOc1ccc(NC(=S)NC(=O)c2c(Cl)c(C)nn2C)c([N+](=O)[O-])c1 |  | inconclusive: 25.1 µM [inhibitor, single point]
31 | O=C(COC(=O)c1ccc([N+](=O)[O-])s1)Nc1ccc(Cl)cn1 |  | inconclusive: 39.8 µM [inhibitor, single point]
32 | O=C(CN1C(=O)COc2ccc(S(=O)(=O)N3CCCC3)cc21)NCCc1ccc(Cl)cc1 | inactive: 12% | 
33 | Oc1ccccc1-c1nc(/C=C/c2ccccc2)nn1-c1ccccc1 |  | inconclusive: 25.1 µM [inhibitor, single point]
34 | Cc1cccc(C(=O)N2CCN(c3ncnc4c3cnn4-c3ccccc3)CC2)c1 |  | inconclusive: 39.8 µM [activator, single point]
35 | CCN(CC)C(=O)COC(=O)c1cc(-c2ccc(OC)cc2)nc2ccccc12 |  | inconclusive: 39.8 µM [activator, single point]
36 | Cc1ccc(C(C)C)c(OCc2ccc(C(=O)Nc3ccc(S(N)(=O)=O)cc3C)o2)c1 |  | inconclusive: 39.8 µM [activator, single point]
37 | Cc1ccc(S(=O)(=O)c2nc(-c3ccco3)oc2SCC(=O)c2ccc(Cl)cc2)cc1 |  | inconclusive: 39.8 µM [inhibitor, single point]
38 | CC(C)NC(=O)Cn1c(=O)nc(-c2ccccc2)c2ccccc21 | inactive: -1.61% | 
39 | O=c1c2ccccc2c(/C=N/c2ncn[nH]2)c(O)n1Cc1ccccc1 |  | inconclusive: 39.8 µM [activator, single point]
40 | CN1CCN(c2ncc3nc(-c4cccs4)c(=O)n(CCc4ccccc4)c3n2)CC1 | inactive: 20.1% | 
41 | CCn1cc(C(=O)NCc2ccco2)c(=O)c2cc(S(=O)(=O)N3CCC(C)CC3)ccc21 |  | inconclusive: 39.8 µM [activator, single point]
42 | COc1ccc(-c2csc(NC(=O)c3ccc(OCC(=O)N4CCOCC4)c(OC)c3)n2)cc1 |  | inconclusive: 31.6 µM [activator, single point]
43 | O=C(COc1ccccc1Cl)N1CCN(c2ccc([N+](=O)[O-])c(N3CCOCC3)c2)CC1 |  | inconclusive: 39.8 µM [activator, single point]
44 | N#Cc1cc(C(=O)c2cc(F)ccc2O)cn(-c2nccs2)c1=O |  | inconclusive: 25.1 µM [inhibitor, single point]

Row | Compound | max response, negative = inhibition | Potency
45 | Cc1ccc(SCC(=O)Nc2ccc3oc(-c4ccc(F)cc4)nc3c2)cc1 | inactive: 10.5% | 
46 | CCC/C=N/O | inactive: -1.97% | 
47 | COc1ccc(C2c3sc(=O)[nH]c3SC3C4CCC(C4)C23)cc1 (stereo not given) |  | inconclusive: 31.6 µM [inhibitor, single point]
48 | COCCOC(=O)c1c(C)oc2ccc(OC(=O)c3c(OC)cccc3OC)cc12 |  | inconclusive: 31.6 µM [activator, single point]
49 | COc1ccc(C)cc1NC(=O)N1CCN(c2cc(-c3noc(C)n3)ccc2C)CC1 |  | inconclusive: 39.8 µM [activator, single point]
50 | Cc1ccc(NC(=O)c2sc3nc(-c4ccc(F)cc4)ccc3c2N)cc1F |  | inconclusive: 39.8 µM [inhibitor, single point]
51 | Cc1c(NC(=O)COC(=O)c2cc(-c3cccc4ccccc34)nc3ccccc23)c(=O)n(-c2ccccc2)n1C |  | inconclusive: 31.6 µM [activator, single point]
52 | COc1ccc(NC(=O)CN2C(=O)COc3ccc(S(=O)(=O)N4CCCCC4)cc32)cc1Cl | inactive: -5.58% | 
53 | Cc1oc(-c2cccs2)nc1CS(=O)CC(=O)NCCCOC(C)C (stereo not given) | inactive: -10.8% | 
54 | CCCn1c(=O)c2c(C(=O)OCC)cc(-c3ccco3)nc2n(CCC)c1=O |  | inconclusive: 31.6 µM [activator, single point]
55 | COc1ccc(/C=C2\SC(=O)N(CCNC(=O)C3CC(=O)N(c4ccccc4)C3)C2=O)cc1 (stereo not given) |  | inconclusive: 31.6 µM [activator, single point]
56 | CCOC(=O)c1ccc(CN(Cc2ccccc2C)S(=O)(=O)c2ccc(F)c(C(=O)Nc3cccc(OC)c3)c2)cc1 |  | inconclusive: 10 µM [inhibitor, partial curve]
57 | CCn1nc(NC(=O)c2ccccn2)c2cc3cccc(C)c3nc21 |  | inconclusive: 31.6 µM [activator, single point]
58 | Cc1ccc(C)c(NC(=O)CN(C)C(=O)[C@@H](NC(=O)c2ccc(C(C)(C)C)cc2)C(C)C)c1 |  | inconclusive: 31.6 µM [activator, single point]
59 | Cc1c(C)n(Cc2ccc(F)cc2)c2ccc(C(=O)Nc3ccc(Cl)cc3)cc12 |  | active: 25.1 µM
60 | Cn1c(OCc2ccc3c(c2)OCO3)nc2c1c(=O)n(Cc1ccc(Cl)c(Cl)c1)c(=O)n2C |  | inconclusive: 39.8 µM [inhibitor, single point]
61 | C=C1CC[C@@H]2O[C@@]2(C)CC[C@H]2[C@H]1CC2(C)C |  | inconclusive: 39.8 µM [activator, single point]
62 | COc1ccc2ncc(S(=O)(=O)c3ccccc3)c(N3CCC4(CC3)OCCO4)c2c1 |  | inconclusive: 39.8 µM [activator, single point]
63 | COc1ccc(NC(=O)COc2ccc(C(=O)NC3CCCc4ccccc43)cc2OC)cc1 (stereo not given) |  | inconclusive: 25.1 µM [inhibitor, single point]
64 | CC1=CC(=O)C2=C(C)C[C@H](OC(=O)Cc3ccccc3)C3[C@H](OC(=O)[C@H]3C)C12 (stereo not given in full) |  | inconclusive: 25.1 µM [inhibitor, single point]
65 | COc1ccc(N2CCCn3c2nc2c3c(=O)n(Cc3ccccc3F)c(=O)n2C)c(OC)c1 |  | inconclusive: 39.8 µM [activator, single point]

From PubChem BioAssay AID1476 (National Center for Advancing Translational Sciences (NCATS), 2009)
